# From PubChem BioAssay (NCATS)
# This list was built around the results that the source calls inconclusive (neither active nor inactive); the mix of calls is not that of the screen. For some of these results: No potency is given beside an inconclusive call; the fits are too rough. The source made the active and inactive calls. Unless noted, the call rests on the fitted dose curve; in most records, active means well fitted curve in the direction sought with a large enough effect; inconclusive means small, poorly fitted or top-dose-only effect, or another doubt; inactive means no such curve, though single readings can be large; an effect the other way counts as inactive or inconclusive.
# Columns and labels:
# [1] = molecular target: Glutathione peroxidase 1 (Homo sapiens) (UniProt P07203); test: Primary qHTS Assay for Inhibitors of Recombinant Selenoprotein Glutathione Peroxidase 1 (GPX1) (AID 1845191); conditions: activity, negative = inhibition: at 48.8 µM (top of the series); further: potency means the concentration at half of the fitted maximal effect; nearly all actives have a fitted effect of over 65% in size
# UniProt P07203, sequence (P07203 whole entry, looked up): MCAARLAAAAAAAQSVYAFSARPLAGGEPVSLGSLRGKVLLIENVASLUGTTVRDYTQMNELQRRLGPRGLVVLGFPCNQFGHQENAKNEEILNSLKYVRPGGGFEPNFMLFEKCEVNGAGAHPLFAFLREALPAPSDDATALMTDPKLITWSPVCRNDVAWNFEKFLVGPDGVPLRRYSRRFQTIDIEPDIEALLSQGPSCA
# Method in brief: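 GR-coupled readout: NADPH consumption tracked by fluorescence, ex 340/em 450 nm, at t=0 and after 15 min at RT. Final mix 10 nM GPX1, 1 mM GSH, 0.5 mM CHP, 0.5 mM NADPH, 100 nM GR, 0.01% BSA, following 30 min enzyme–compound preincubation.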
# [2] = Primary redox qHTS assay for identification of artifact compounds. (AID 1845223); further: potency means the concentration at half of the fitted maximal effect
# Method in brief: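 Redox-cycling detection via DTT (250 uM final) oxidation coupled to Amplex Red (25 uM)/HRP (250 mU/mL) in HBSS. 15 min preincubation plus 30 min after DTT, room temperature. Ex/Em 525/598 nm; 4-parameter Hill fit against DMSO and 10 uM DA3003.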
# [3] = molecular target: Cytochrome P450 2D6 (Homo sapiens) (UniProt P10635); test: Cytochrome P450 family 2 subfamily D member 6 (CYP2D6) small molecule antagonists: luciferase biochemical (cell-free) qHTS assay (AID 1645840; active means well fitted curve in the direction sought with a large enough effect in the repeat runs; inconclusive means weak or mixed curves; inactive means no such curve, though single readings can be large; an effect the other way counts as inactive or inconclusive; further: nearly all actives have a fitted effect of over 55% in size; further: potency means the concentration at half of the fitted maximal effect; on activity change, negative = inhibition: on the % scale 0 is the no-effect control and ±100 the full control effect)
# UniProt P10635, sequence (P10635 whole entry, looked up): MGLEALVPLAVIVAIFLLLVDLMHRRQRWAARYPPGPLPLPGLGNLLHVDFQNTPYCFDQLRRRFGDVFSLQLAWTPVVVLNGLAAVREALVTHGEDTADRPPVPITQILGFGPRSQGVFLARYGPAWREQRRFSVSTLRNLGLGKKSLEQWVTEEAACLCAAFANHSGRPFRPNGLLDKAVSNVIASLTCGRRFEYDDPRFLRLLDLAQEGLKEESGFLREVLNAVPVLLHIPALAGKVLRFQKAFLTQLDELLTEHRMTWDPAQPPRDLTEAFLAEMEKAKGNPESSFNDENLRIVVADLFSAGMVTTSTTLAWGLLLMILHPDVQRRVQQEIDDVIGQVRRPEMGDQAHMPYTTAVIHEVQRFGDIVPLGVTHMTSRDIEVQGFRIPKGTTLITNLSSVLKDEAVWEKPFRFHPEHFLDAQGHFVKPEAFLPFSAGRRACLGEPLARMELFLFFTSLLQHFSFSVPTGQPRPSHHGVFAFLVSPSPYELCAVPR
# Method in brief: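 P450-Glo CYP2D6 system: proluciferin substrate converted by enzyme to luciferin, read by luminescence proportional to activity. Enzyme-substrate mix with compound 10 min at room temperature, then NADPH regeneration 1 h before detection reagent.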
# [4] = Primary fluorescence-based thiol-reactive (MSTI) qHTS assay for identification of artifact compounds. (AID 1845221);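 further: potency means the concentration at half of the fitted maximal effect; thiol-reactive compounds lower the probe fluorescence signal; nearly all actives have a fitted effect of over 65% in size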
# Method in brief: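 A multi-concentration qHTS design tested compounds against 4 uM MSTI, pH 7.4 phosphate-buffered saline. Plates were protected from light for 1 h at room temperature before imaging fluorescence.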
# [5] = qHTS of pediatric cancer cell lines to identify multiple opportunities for drug repurposing: Primary screen for SK-N-MC cells (AID 1347093); conditions: SK-N-MC viability, CellTiter-Glo luminescence, 48 h; activity change, negative = cytotoxic: at 46 µM (top of the series); further: potency means the concentration at half of the fitted maximal effect
# Method in brief: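 Metabolically active cells were quantified by ATP-dependent luminescence (CellTiter-Glo, 15 min at room temperature) following 48 h treatment. Cells had been plated at 500-1,000 per well and settled for 5 h beforehand.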
# [6] = qHTS of pediatric cancer cell lines to identify multiple opportunities for drug repurposing: Primary screen for U-2 OS cells (AID 1347096); further: potency means the concentration at half of the fitted maximal effect; nearly all actives have a fitted effect of over 50% in size
# Method in brief: (§1)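 Viability after 48 h compound treatment at 37C, 500-1,000 cells/well, read as ATP luminescence with CellTiter-Glo. Primary screens used 11-point (MIPE, 0.78 nM-46 µM) or 8-point (NPC, 0.59 nM-46 µM) final concentrations; follow-up screens used 11-point dilutions.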
# [7] = qHTS of pediatric cancer cell lines to identify multiple opportunities for drug repurposing: Primary screen for Rh18 cells (AID 1347102); further: potency means the concentration at half of the fitted maximal effect; nearly all actives have a fitted effect of over 65% in size
# Method in brief: as §1
# [8] = qHTS of pediatric cancer cell lines to identify multiple opportunities for drug repurposing: Primary screen for Rh30 cells (AID 1347107); further: potency means the concentration at half of the fitted maximal effect; nearly all actives have a fitted effect of over 75% in size
# Method in brief: as §1
# [9] = qHTS of pediatric cancer cell lines to identify multiple opportunities for drug repurposing: Primary screen for Rh41 cells (AID 1347108); further: potency means the concentration at half of the fitted maximal effect; nearly all actives have a fitted effect of over 70% in size
# Method in brief: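 Primary screen of approved and investigational compounds on cells in growth media at 37 degrees C, 5% CO2. MIPE set at 11-point and NPC set at 8-point dilutions; viability scored by ATP-based luminescence at 48 hours.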
# [10] = molecular target: Phospholipid hydroperoxide glutathione peroxidase GPX4 (Homo sapiens) (UniProt P36969); test: Primary qHTS Assay for Inhibitors of Recombinant Selenoprotein Glutathione Peroxidase 4 (GPX4) (AID 1845192); further: nearly all actives have a fitted effect of over 65% in size; further: potency means the concentration at half of the fitted maximal effect; on activity change, negative = inhibition: on the % scale 0 is the no-effect control and ±100 the full control effect
# UniProt P36969, sequence (P36969 whole entry, looked up): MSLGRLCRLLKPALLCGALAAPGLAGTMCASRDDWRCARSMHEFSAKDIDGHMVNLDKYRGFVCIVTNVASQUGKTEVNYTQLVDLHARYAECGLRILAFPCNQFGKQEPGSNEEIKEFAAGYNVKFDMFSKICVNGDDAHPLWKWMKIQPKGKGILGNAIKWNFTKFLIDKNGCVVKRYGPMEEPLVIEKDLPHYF
# Method in brief: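 Steps: GPX4 plus compound, 30 min RT; add GR/GSH/NADPH master mix; start with cumene hydroperoxide; read 340/450 nm fluorescence at 0 and 15 min. Finals were 200 nM GPX4, 1 mM GSH, 0.5 mM CHP, 0.5 mM NADPH, 100 nM GR.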
# MKL-2 = test: qHTS assay to identify novel small-molecules to repurpose for Merkel cell carcinoma treatment (AID 1296009); conditions: MCC and control cell lines, CellTiter-Glo viability, 72 h; activity change, negative = cytotoxicity: at 46 µM (top of the series); further: potency means the concentration at half of the fitted maximal effect; nearly all actives have a fitted effect of over 60% in size
# Method in brief: (§2)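 Dose-response viability screen; 72 hr exposure at 37 degree celsius; CellTiter-Glo added, 10 min room temperature, luminescence read; RLUs scaled between no-cell and DMSO wells.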
# UISO = test: as above; conditions: MCC and control cell lines, CellTiter-Glo viability, 72 h; activity change, negative = cytotoxicity: at 46 µM (top of the series)
# Method in brief: as §2
# [11] = molecular target: Cytochrome P450 2C9 (Homo sapiens) (UniProt P11712); test: Cytochrome P450 family 2 subfamily C member 9 (CYP2C9) small molecule antagonists: luciferase biochemical (cell-free) qHTS assay (AID 1645842; active means well fitted curve in the direction sought with a large enough effect in the repeat runs; inconclusive means weak or mixed curves; inactive means no such curve, though single readings can be large; an effect the other way counts as inactive or inconclusive; further: nearly all actives have a fitted effect of over 55% in size; further: potency means the concentration at half of the fitted maximal effect)
# UniProt P11712, sequence (P11712 whole entry, looked up): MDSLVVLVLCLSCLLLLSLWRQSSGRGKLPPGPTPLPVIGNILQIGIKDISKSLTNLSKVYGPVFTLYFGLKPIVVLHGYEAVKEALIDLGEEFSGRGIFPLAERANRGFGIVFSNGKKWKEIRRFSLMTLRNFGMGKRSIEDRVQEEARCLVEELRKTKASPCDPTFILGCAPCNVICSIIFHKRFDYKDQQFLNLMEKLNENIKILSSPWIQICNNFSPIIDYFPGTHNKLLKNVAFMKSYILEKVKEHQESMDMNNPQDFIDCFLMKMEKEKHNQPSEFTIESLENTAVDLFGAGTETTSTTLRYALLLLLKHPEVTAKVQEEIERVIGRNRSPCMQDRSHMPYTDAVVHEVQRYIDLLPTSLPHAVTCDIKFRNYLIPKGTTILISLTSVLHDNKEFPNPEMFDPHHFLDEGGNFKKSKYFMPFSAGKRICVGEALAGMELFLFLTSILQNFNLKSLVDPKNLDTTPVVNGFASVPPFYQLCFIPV
# Method in brief: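 P450-Glo CYP2C9 system: proluciferin substrate with enzyme in mix containing 0.4% BSA, 10 min at room temperature, then NADPH regeneration solution added and incubated 1 h at 37C. Detection reagent stopped reaction; luminescence read after 20 min as RLU.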
# [12] = system: Zika virus NS2B-NS3 protease (linked construct); test: Primary screen NINDS Rhodamine qHTS for Zika virus inhibitors (AID 1347160); further: nearly all actives have a fitted effect of over 55% in size; further: potency means the concentration at half of the fitted maximal effect; on activity change, negative = inhibition: on the % scale 0 is the no-effect control and ±100 the full control effect
# Method in brief: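 Aprotinin served as in-plate control. Conditions: 25 nM linked NS2B-NS3, pH 8.0 Tris buffer, titrated compounds, 15 min preincubation and 15 min reaction with 1.5 microM Rhod110 substrate at room temperature.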
# [13] = molecular target: Calcium and integrin-binding protein 1 (Homo sapiens) (UniProt Q99828); test: Primary qHTS for Identification of Calcium Integrin Binding Protein 1 (CIB1) Competitor (AID 1508620); further: potency means the concentration at half of the fitted maximal effect;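 on activity change, negative = inhibition: GST tagged CIB1 binding a fluorescein labelled alphaIIb integrin peptide tracer; top concentration of the series differs between compounds; on the % scale 0 is the no-effect control and ±100 the full control effect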
# UniProt Q99828, sequence (Q99828 whole entry, looked up): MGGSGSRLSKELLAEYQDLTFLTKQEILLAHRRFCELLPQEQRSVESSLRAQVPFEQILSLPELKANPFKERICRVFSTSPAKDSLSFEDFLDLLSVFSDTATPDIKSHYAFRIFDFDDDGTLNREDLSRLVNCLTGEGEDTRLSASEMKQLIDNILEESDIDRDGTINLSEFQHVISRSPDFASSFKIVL
# Method in brief: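 Fluorescence polarization competition: GST-tagged CIB1 (1 uM final) preincubated with compound 15 min at room temperature, then FITC-labelled alphaIIb peptide (100 nM final) added. After 15 min at room temperature, polarization read at Ex 480/Em 540.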
# [14] = qHTS of pediatric cancer cell lines to identify multiple opportunities for drug repurposing: Primary screen for BT-12 cells (AID 1347101);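 further: plate controls were DMSO for no effect and bortezomib positive control for full effect; nearly all actives have a fitted effect of over 25% in size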
# Method in brief: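 Cells (500-1,000/well) rested 5 h, then received compounds for 48 h; metabolically active cells were measured by CellTiter-Glo luminescence. Final concentrations spanned up to 46 µM (MIPE, 11-point) or 0.59 nM-46 µM (NPC, 8-point) in primary screens, 11-point in follow-ups.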
# [15] = Primary qHTS for small molecule stabilizers of the endoplasmic reticulum resident proteome: Secreted ER Calcium Modulated Protein (SERCaMP) assay (AID 1508630); conditions: SH-SY5Y GLuc-SERCaMP (Gaussia luciferase released on ER calcium loss) secretion, thapsigargin, luminescence; activity change, negative = inhibition: at 38.4 µM (top of the series); further: potency means the concentration at half of the fitted maximal effect
# Method in brief: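 The SH-SY5Y reporter protocol was run at 3 concentrations up to 38.3 uM (primary) or 11 concentrations (follow-up): 16 h compound, 100 nM thapsigargin for 4 h, then extracellular luciferase luminescence.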
# Tags describe the fitted curve by direction and shape.
smiles,measurement,setting,value
N#Cc1cccc(C#N)c1-c1nc2c3ccccc3c3cc(Cl)ccc3c2[nH]1,Potency,[1],"inconclusive [inhibitor, partial curve, poor fit]"
same,Potency,[2],"inconclusive [activator, partial curve, poor fit]"
CC(C)c1cccc(C(C)C)c1NC(=O)Nc1ccc(Sc2ccc([N+](=O)[O-])cc2)cc1,Potency,[3],inactive
same,Potency,[4],"inconclusive [inhibitor, full curve, poor fit]"
CC(C)c1c(C(=O)Nc2ccccc2)c(-c2ccccc2)c(-c2ccc(F)cc2)n1CC[C@@H](O)C[C@@H](O)CC(=O)O,Potency,[5],"inconclusive [cytotoxic, partial curve, poor fit]"
same,Potency,[6],active: 21.1 µM
same,Potency,[7],"inconclusive [cytotoxic, single point]"
same,Potency,[8],"inconclusive [cytotoxic, partial curve, poor fit]"
same,Potency,[9],"inconclusive [cytotoxic, single point]"
same,Potency,[10],"inconclusive [inhibitor, partial curve, poor fit]"
same,Potency,[2],"inconclusive [activator, full curve, poor fit]"
same,Potency,MKL-2,active: 2.66 µM
same,Potency,UISO,active: 10.6 µM
COc1c(C)cnc(Cn2cc(C#CCC(C)(C)O)c3c(Cl)nc(N)nc32)c1C,Potency,[2],"inconclusive [activator, single point]"
CC1CCC(n2c3cnccc3c3cnc(Nc4ccc5c(n4)CCN(C(=O)CO)C5)nc32)CC1 (stereo not drawn),Potency,[11],"inconclusive [inhibitor, partial curve, poor fit]"
Cc1ccc(NC(=O)c2ccc(CN3CC[C@H](N(C)C)C3)c(C(F)(F)F)c2)cc1Nc1nccc(-c2cncnc2)n1,Potency,[3],"inconclusive [inhibitor, partial curve]"
same,Potency,[11],"inconclusive [inhibitor, partial curve]"
CN(Cc1ccc(C(=O)O)cc1)c1ccc(OCc2c(-c3c(Cl)cccc3Cl)noc2C2CC2)nc1C(F)(F)F,Potency,[12],active: 2.51 µM
same,Potency,[3],"inconclusive [inhibitor, single point]"
same,Potency,[1],"inconclusive [inhibitor, partial curve, poor fit]"
same,Potency,[10],"inconclusive [inhibitor, partial curve]"
CNc1nc(Nc2ccc(C(=O)N3CCOCC3)cc2OC)nc2[nH]cc(Cl)c12,Potency,[4],active: 1.68 µM
CC1OC2O[C@H]3[C@@H](OCC(O)[C@H]3O)OC(=O)C34CCC(C)(C)CC3C3=CCC5C6(C)CC(O)C(OC7OC(CO)C(O)C(O)C7O[C@@H]7OC[C@H](OC(=O)CC(C)(O)CC(=O)OC1C(OC1OCC(O)C(O)C1O)C2O)[C@@H](O)[C@H]7O)C(C)(CO)C6CCC5(C)C3(C)CC4 (stereo partly drawn),Potency,[10],inactive
CON(C)C(=O)N1N=C(c2cc(F)ccc2F)S[C@@]1(CCCN)c1ccccc1,Potency,[13],inactive
same,Potency,[3],active: 19 µM
same,Potency,[11],active: 3.01 µM
same,Potency,[10],inactive
Cc1cc(F)ccc1[C@H]1C[C@@H](N2CCN3C(=O)CC[C@H]3C2)CCN1C(=O)N(C)[C@H](C)c1cc(C(F)(F)F)cc(C(F)(F)F)c1,Potency,[12],inactive
same,Potency,[4],"inconclusive [inhibitor, single point]"
N[C@@H](CSSC[C@H](N)C(=O)O)C(=O)O,"activity change, negative = cytotoxic",[14],inactive: 5.67% [at 0.745 µM]
same,Potency,[15],"inconclusive [inhibitor, partial curve, poor fit]"
same,"activity change, negative = inhibition",[11],inactive: 15.4% [at 0.91 µM]
CN(C)c1cc2c(Nc3ccc4c(cnn4Cc4ccccc4)c3)ncnc2cn1,Potency,[13],"inconclusive [inhibitor, partial curve, poor fit]"
same,Potency,[15],"inconclusive [inhibitor, single point]"
same,Potency,[4],"inconclusive [inhibitor, full curve]"
same,Potency,[2],"inconclusive [activator, partial curve]"
Cn1ncc(Cl)c1-c1cc(C(=O)NC(CN)Cc2ccc(F)c(F)c2)oc1Cl (stereo not drawn),Potency,[11],"inconclusive [inhibitor, single point]"
CC(O)CCC1C(CO[C@@H]2O[C@H](CO)[C@@H](O)[C@H](O)[C@H]2O)CC(O)CC1(C)C (stereo partly drawn),Potency,[4],"inconclusive [inhibitor, partial curve]"
same,Potency,[2],"inconclusive [activator, single point]"
C[C@@H](Nc1ncnc2[nH]c(-c3ccc(O)cc3)cc12)c1ccccc1,Potency,[3],active: 1.34 µM
same,Potency,[1],"inconclusive [inhibitor, partial curve]"
same,Potency,[10],"inconclusive [inhibitor, single point]"
same,Potency,[2],inactive
